Reference: the supplement of paper PMC10126150
Values marked as one replicate rest on one cluster of the flow cell; about a third of the high ones do not repeat.

Tested on: ATP
Assay: switch fluorescence ratio, 500 uM ATP over buffer (Cy3 cluster intensity, sum of 5 cycles each) (fold (ratio)); higher = stronger signal-on switching upon ATP binding; sequences stand for … in TCGTCGGCAGCGTCAGATGTGTATAAGAGACAGTTTTTTTTTTTTTTTTTTTTTTTTT…TC
Conditions: aptamer strand: ATP DNA aptamer (quencher-CACCTGGGGGAGTATTGCGGAGGAAGG + anchor), 100 nM annealed; ATP concentration: 500 uM; one replicate
Method in brief: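 Per cluster, summed Cy3 intensity from the target cycles was divided by that from the buffer cycles to give the fluorescence ratio, then averaged per switch-domain sequence. Clusters outside 100-1000 RFU were excluded. The Cy3-labelled switching-strand clusters, on a modified Illumina MiSeq flow-cell, were annealed to 100 nM quencher-labelled ATP aptamer and imaged in selection buffer, then after 15 min with 500 uM ATP at 22 °C, for five cycles with NaOH stripping and re-annealing between them.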
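Also: ATP exposure 15 min at 22 °C before imaging.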

Sequence | switch fluorescence ratio
CGGTTGGAGA | 1
GGAGAGTGTT | 0.979
GTCGGCCCGA | 0.994
ACGATGTTTT | 0.98
GCCTGGTGTA | 1.3
CGATCGAGCG | 0.955
TTCCCTCTTT | 1.2
CCATTTACG | 1.03
GCACATGAGT | 1.04
CCGAAAGGT | 1.05
TCGGGGAGAC | 1.08
TTGACAATTT | 1.03
TAGAGTTACT | 1.01
GTGGAAATCG | 0.973
CGAGCTTGTA | 0.987
TATATGGGCA | 1.02
CCTATCAGCG | 1.13
ACAGGGAATG | 1.03
TGATATATAT | 1
GACTTGCTCG | 0.998
GCAACATTAT | 1.01
AGTTTGAATG | 1.04
TAACTCTTTA | 0.96
CTTGGCGCTT | 1.04
AAATTCGCCG | 1.11
ATGATCGTTG | 1.02

Sequence | switch fluorescence ratio
CAGTGCGGAT | 1.06
GAGGACTA | 0.99
GTGACGGCGC | 1.03
GCCGTATACA | 0.965
TACCTGCTCT | 1.05
GAGTTGATAG | 1
CGAAATCGAG | 1.07
AGCTGAGGTA | 0.995
TCAGTAGAGT | 1.03
TTTTGCTAAG | 0.963
TAAATTAAAT | 1.02
GATCTTGTCG | 1.01
TAGGCGAAGG | 1.03
TAACACCTT | 1.15
GAATCTTCTG | 1.09
CGACTCCCCA | 1.17
CTTCGGGCTG | 0.995
ATGTTTAAAA | 0.991
TTACCAATTA | 1.03
CGCGGGATTG | 1.03
CAATCCAGGA | 1.02
CGAACTACTC | 1.75
GGTACAAGGC | 0.976
TTAGTTCCTG | 0.99
GAAATCGCAT | 1.15
CCAATTTCGC | 1.02

Sequence | switch fluorescence ratio
GCCTATTCAC | 0.997
GCTAAAAGCA | 0.997
ATCTTTTCGT | 0.966
TCGGTTTTGG | 0.993
TCGGGCCGAT | 1.08
AATTTCGAGA | 0.955
ACGCACAACC | 1.39
CCAGTGGGCA | 1.03
GCACGTCGTC | 1.13
AGACCTAATT | 1.02
TATCTTTCTA | 0.982
AAAGGAGCGA | 0.988
GGAATATTCG | 1.02
ATGATGGAGG | 1.02
TCCACGCCGC | 1.43
GGATTCGGGT | 0.954
AATGCTGAT | 0.985
AAGTTCAGCA | 1.03
ACTCTAGAAA | 1.06
CGTGAGTATT | 1.01
TCAATGTGCT | 0.986
CGTTCTTAGT | 0.972
GCCTGGGAGT | 0.963
AGCGGGCTAA | 0.988
CTAGCGTGGG | 1.01
ACCGTGGTGG | 1.02

Sequence | switch fluorescence ratio
TTCCAGTCTT | 1.14
TTCTGTGCTT | 0.96
CTTGTGTGCC | 0.968
AACGTGATAG | 1.28
GCGTCCTAAG | 1
CCGCGAACTA | 4.45
ATGCGCTTAT | 1
CTCACTTGCG | 1.01
TTGGCTGGGC | 1.01
ACTAGCCAGG | 1.62
TCAACAGGTA | 1.04
AATGGTAGTA | 0.983
TCTAACAAGA | 1.03
GAATGGGCAC | 1.2
CGCATGTTAA | 1.1
AACTGACACA | 1.16
TGTATATTAG | 0.967
AGCGGAACAA | 1.06
CCGGTTAGGT | 1.05
CCATCCGATC | 2.24
ACATAACTGC | 1.09
TCTCAGTCGC | 0.99
ACGGAAGGCC | 1.09
TCCCTGAAGG | 0.98
TTTTCAATGG | 1.13
CTCGGGAGGA | 0.968

Sequence | switch fluorescence ratio
CTGCCAATTA | 1.24
TATTTAAACC | 1
CGGCATATC | 2.3
CGGAGCGGAT | 1.34
CTGGGAACAA | 1.06
CCAATGCTAA | 1.26
ATAGCCCGGT | 1.01
GTGTAATTTC | 0.955
CCTGATTGCG | 1.11
AAATCTAGAG | 1.01
CACTTCAGGT | 1.07
GGTGTATTAT | 0.95
CCCTCTTAAG | 1.07
CCAGTGGGAC | 1.05
CGCCCTCGCG | 1.02
AAAGACGTGG | 0.976
GCCTCTCGAT | 1.02
GCGGGTGAAG | 0.976
AACTGTGGC | 1.02
ACGTGGTGCT | 1.04
GGTCCCGGTA | 1.09
AGTATGTGTA | 0.997
AGGGAGATGA | 1.01
GCTCGGGGCA | 0.954
CGCGACGGAC | 1.4
GATTTTGTCG | 0.95

Sequence | switch fluorescence ratio
TCGAAAGGTA | 1.03
CTTGGACGTC | 0.991
TAATATACCT | 1.34
TATCAGTGCT | 1
CGTGACCTCG | 1.04
TCCTCGGA | 1.04
GAGAAGCCAT | 0.984
GAGTAAGGTG | 0.963
GGGTGCATCT | 0.961
TCGACGAAGT | 0.985
AAAGGAAGTT | 1.01
CTAGCGTATC | 1.03
GGCCTGCAAC | 1.1
CTGGTATTGA | 1.01
ATTATCAGGC | 0.919
GCTGCATGGC | 1.13
TGTGTTGT | 0.972
TAAAGAATCG | 1.01
GGGCGGCCCA | 1.18
AAACTACTGG | 1.01
GGCACTGATC | 1.07
GATCAAATA | 0.977
AACGTTTGGG | 1.02
TGGTACGGCG | 0.99
CGAGGACCAC | 1.02
AGTACCCCGT | 0.981

Sequence | switch fluorescence ratio
ACTTCCGACT | 2.15
GATATACCAG | 1.04
TTACCAAATG | 1.03
TTCTTCGCTT | 1.37
ATGTAGTTTG | 0.993
TCCTATCTAG | 0.986
CCTACGGTGC | 3.03
AGTGTTTCAT | 1.01
TTATTTAATG | 0.997
TGTATAATCA | 0.989
TCAGTCGAGA | 1.02
AACTGCCCAC | 1.08
ATACCTAAGG | 1.03
CGTTTATACT | 1.24
TTTCGGCAGG | 1.02
TAGGGCAGAC | 1.12
TTTGTCTTAG | 1.01
TTTAGCCC | 0.992
CCATGATTG | 1.02
GATTGAAATG | 0.972
GCACCTTC | 1.27
GTTTGGAGCG | 1.01
TAAAAATCAA | 1.01
AACATTTA | 1.04
GCAGCGCTGG | 0.977
CTGTTACGAA | 1.03

Sequence | switch fluorescence ratio
TGTGTGTGG | 1.06
GCTCATGCAT | 1.12
AATCCGCCAC | 2.2
ACTTGTCCTT | 1.03
CGCGTGAGGA | 0.973
ACTATTTGCT | 0.97
CGAGGGGAGA | 1.02
TGACTTACAG | 1.01
GGATACGAGT | 1.03
TGAGGTTATG | 0.974
GAAAAGGGAA | 0.98
ACCCCAGCAT | 1.36
GCGCACAGGT | 1.41
CAATACTAGT | 1.02
CCACGCGCGA | 2.55
ATCAACAGTG | 1.01
GCCTTCGGTG | 1.04
GCTACAGCCG | 1.09
CCAATGCCCT | 1.06
